{
  "source": "paper PMC4336329",
  "about": "(PLoS ONE, 2015)",
  "note": "About 2,200 (0.71%) of roughly 310,000 compounds showed an effect of 50% or more. The effect is printed as a negative number. Some of the results follow.",
  "data": [
    {"target": "human ether-à-go-go-related gene (hERG) potassium channel (human, UniProt Q12809)", "sequence (Q12809 whole entry, looked up)": "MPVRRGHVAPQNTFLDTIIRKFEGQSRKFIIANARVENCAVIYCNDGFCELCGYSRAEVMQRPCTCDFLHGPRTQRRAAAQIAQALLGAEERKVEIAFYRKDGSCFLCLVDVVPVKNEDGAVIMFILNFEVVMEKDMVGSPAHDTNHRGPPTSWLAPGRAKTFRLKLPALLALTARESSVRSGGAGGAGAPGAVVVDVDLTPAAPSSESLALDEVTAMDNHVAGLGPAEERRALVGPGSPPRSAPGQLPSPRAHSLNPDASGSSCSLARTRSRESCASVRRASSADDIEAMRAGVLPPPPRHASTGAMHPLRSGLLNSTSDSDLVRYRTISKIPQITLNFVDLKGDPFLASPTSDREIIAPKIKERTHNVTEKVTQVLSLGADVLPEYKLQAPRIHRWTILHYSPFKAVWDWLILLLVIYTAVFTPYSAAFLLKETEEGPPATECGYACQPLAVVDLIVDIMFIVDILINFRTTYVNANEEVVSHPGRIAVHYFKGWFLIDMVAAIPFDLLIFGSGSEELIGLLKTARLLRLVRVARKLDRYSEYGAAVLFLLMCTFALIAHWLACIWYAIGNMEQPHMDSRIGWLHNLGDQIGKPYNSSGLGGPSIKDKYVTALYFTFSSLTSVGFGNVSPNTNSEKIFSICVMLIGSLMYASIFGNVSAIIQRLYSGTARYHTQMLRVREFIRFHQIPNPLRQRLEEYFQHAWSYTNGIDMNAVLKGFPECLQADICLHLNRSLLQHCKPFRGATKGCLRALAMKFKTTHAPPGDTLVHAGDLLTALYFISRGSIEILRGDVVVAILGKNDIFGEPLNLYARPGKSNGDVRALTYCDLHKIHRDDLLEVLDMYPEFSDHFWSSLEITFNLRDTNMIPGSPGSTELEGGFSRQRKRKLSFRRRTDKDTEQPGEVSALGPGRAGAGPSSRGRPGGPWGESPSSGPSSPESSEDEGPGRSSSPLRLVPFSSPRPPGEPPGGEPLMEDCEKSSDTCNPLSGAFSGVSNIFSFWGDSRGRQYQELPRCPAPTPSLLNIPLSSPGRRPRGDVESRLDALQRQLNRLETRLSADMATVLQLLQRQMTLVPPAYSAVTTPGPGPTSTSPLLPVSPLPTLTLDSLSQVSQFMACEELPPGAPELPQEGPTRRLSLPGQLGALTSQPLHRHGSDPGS", "assay": "primary screen, population patch clamp on CHO cells stably expressing hERG", "units": {"hERG current change (%, negative = inhibition) at 1uM": "%"}, "values": [
      {"smiles": "C=CCNc1ccc(F)c(F)c1N1CCCCCC1=O", "hERG current change (%, negative = inhibition) at 1uM": 5.99},
      {"smiles": "Cc1ccc(Cl)c(OCC(O)CN(CCO)CCO)c1", "note": "(stereo not shown)", "hERG current change (%, negative = inhibition) at 1uM": 10.3},
      {"smiles": "CCc1nc2ccc(C(=O)Nc3cccc(C(C)=O)c3)cc2nc1CC", "hERG current change (%, negative = inhibition) at 1uM": 4.59},
      {"smiles": "c1ccc(C2CC(c3ccccc3)C(c3ccccc3)N2)cc1", "note": "(stereo not shown)", "hERG current change (%, negative = inhibition) at 1uM": 10.5},
      {"smiles": "CC1CCCN(c2nc3nonc3nc2Nc2ccccc2F)C1", "note": "(stereo not shown)", "hERG current change (%, negative = inhibition) at 1uM": 19.2},
      {"smiles": "Cc1cc(OCC(=O)OCC(=O)N(C)c2c(N)n(Cc3ccccc3)c(=O)[nH]c2=O)ccc1Cl", "hERG current change (%, negative = inhibition) at 1uM": 5.96},
      {"smiles": "CC(C)(C)n1ncc2c(=O)n(Cc3cccc(Cl)c3)cnc21", "hERG current change (%, negative = inhibition) at 1uM": -10.1},
      {"smiles": "CC(Nc1nc(-c2ccc(F)cc2)cs1)c1nc2cc(C(F)(F)F)ccc2n1CCCO", "note": "(stereo not shown)", "hERG current change (%, negative = inhibition) at 1uM": -11.6},
      {"smiles": "Cc1ccc(/C=N/NC(=O)CSc2nc3ccccc3n2Cc2ccc(Cl)cc2)o1", "hERG current change (%, negative = inhibition) at 1uM": -1.89},
      {"smiles": "CC1CCN(C(=O)Oc2ccccc2)CC1", "hERG current change (%, negative = inhibition) at 1uM": 21.8},
      {"smiles": "CCCCOc1ccccc1NC(=O)CC1Nc2ccccc2NC1=O", "note": "(stereo not shown)", "hERG current change (%, negative = inhibition) at 1uM": 7},
      {"smiles": "CCOC(=O)CNc1nc(Oc2ccc(=O)n(C)n2)nc(N(CC)CC)n1", "hERG current change (%, negative = inhibition) at 1uM": 13.6},
      {"smiles": "CCOC(=O)C1=C(c2ccccc2)NC(SCC)=C(C#N)C1c1cccnc1", "note": "(stereo not shown)", "hERG current change (%, negative = inhibition) at 1uM": 6.14},
      {"smiles": "CC(C)(C)NC(=O)c1ccc2nccnc2c1", "hERG current change (%, negative = inhibition) at 1uM": 14.1},
      {"smiles": "Cc1cccc(NCc2n[nH]c(=S)n2-c2ccccc2)c1", "hERG current change (%, negative = inhibition) at 1uM": 11.6},
      {"smiles": "O=C(O)C1Nc2c(C(F)(F)F)ccc(Cl)c2C2C=CCC12", "note": "(stereo not shown)", "hERG current change (%, negative = inhibition) at 1uM": 15.4},
      {"smiles": "O=C(NNC(=O)C1CCN(S(=O)(=O)c2c(Cl)cccc2Cl)CC1)c1ccccc1O", "hERG current change (%, negative = inhibition) at 1uM": 4.4},
      {"smiles": "C=CCN=C1SCC(=O)N1S(=O)(=O)c1ccc(C)cc1", "hERG current change (%, negative = inhibition) at 1uM": 5.48},
      {"smiles": "O=C(COC(=O)c1ccc(Cl)nc1)Nc1cccc(S(=O)(=O)N2CCCCC2)c1", "hERG current change (%, negative = inhibition) at 1uM": -2.55},
      {"smiles": "O=C(c1ccco1)N1CCN(c2ccc(F)cc2)CC1", "hERG current change (%, negative = inhibition) at 1uM": 5.88},
      {"smiles": "Cc1csc2ncc(C(=O)Nc3ccc4c(c3)OCCO4)c(=O)n12", "hERG current change (%, negative = inhibition) at 1uM": 12.2},
      {"smiles": "CN(C(=O)COC(=O)c1ccc(=O)n(Cc2ccccc2)n1)C1CCS(=O)(=O)C1", "note": "(stereo not shown)", "hERG current change (%, negative = inhibition) at 1uM": -5.82},
      {"smiles": "COc1cc(C=O)ccc1OCCOCCOc1ccc(Cl)cc1", "hERG current change (%, negative = inhibition) at 1uM": -2.67},
      {"smiles": "CC(C)n1c(NCc2nc3ccccc3n2C)nc2ccccc21", "hERG current change (%, negative = inhibition) at 1uM": -12.9},
      {"smiles": "Cn1c(=O)[nH]c(=O)c2c1nc(N1CCOCC1)n2CCSc1nnnn1-c1ccccc1", "hERG current change (%, negative = inhibition) at 1uM": -1.61}
    ]}
  ]
}
